{
  "source": "PubChem BioAssay AID463173",
  "about": "(ICCB-Longwood Screening Facility, Harvard Medical School, 2010)",
  "note": "Screen size: about 52,000 compounds; about 1,700 (3.3%) were called active. Cut-off read from the data, not from the text of the source: active = survival mostly below about 52% (no sharp cut-off); inactive = mostly above about 56%. The list shows a part of the results.",
  "data": [
    {"system": "Wild type", "experiment": "growth inhibition of S. aureus wild type versus tarO mutant, primary screen, teichoic acid synthesis inhibitors, RN4220, OD600 (AID 463173)", "details": "S. aureus RN4220 wild type/DeltatarO growth, OD600, 18 h, active compounds read low, screened at 18.75 µg/mL (by protocol)", "values": [
      {"smiles": "Cc1ccc(CSC2=Nc3ccccc3C3=NC(CCC(=O)NCc4cccs4)C(=O)N23)cc1", "note": "(configuration not stated)", "survival": "inactive: 128%"},
      {"smiles": "O=C(NCC(c1ccc2c(c1)OCO2)N1CCN(c2ccccc2)CC1)C(=O)Nc1cccc(F)c1", "note": "(configuration not stated)", "survival": "inactive: 65%"},
      {"smiles": "CC(=O)Nc1ccc(C(=O)CSc2nnc3scc(-c4ccccc4)n23)cc1", "survival": "inactive: 131%"},
      {"smiles": "Cc1ccc(F)cc1NC(=O)Cn1c(=O)nc(-c2ccccc2F)c2cc(Cl)ccc21", "survival": "inactive: 91%"},
      {"smiles": "COc1ccc(NC(=O)C(C)Sc2nc(N)cc(=O)[nH]2)cc1", "note": "(configuration not stated)", "survival": "inactive: 96%"},
      {"smiles": "Cc1ccc(-c2nc3c(C)cccn3c2Nc2ccccc2C)s1", "survival": "active: -2%"},
      {"smiles": "COc1ccc(C2=C(C)C(=O)N(Cc3ccc(C(=O)Nc4cccc(F)c4)cc3)S2(=O)=O)cc1", "survival": "inactive: 80%"},
      {"smiles": "CC1CCCN(c2nc3c(S(=O)(=O)c4ccc(C(C)C)cc4)nnn3c3ccsc23)C1", "note": "(configuration not stated)", "survival": "inactive: 58%"},
      {"smiles": "Cc1cc(=O)[nH]c(SCSc2nc(C)cc(=O)[nH]2)n1", "survival": "inactive: 104%"},
      {"smiles": "CCC1CCCCN1CCCNC(=O)c1c(O)nc2ccccn2c1=O", "note": "(configuration not stated)", "survival": "inactive: 100%"},
      {"smiles": "COc1ccccc1C(=O)NCc1nnnn1-c1ccc(C)c(C)c1", "survival": "inactive: 79%"},
      {"smiles": "CC(O)c1nc2ccccc2n1Cc1ccccc1", "note": "(configuration not stated)", "survival": "inactive: 100%"},
      {"smiles": "COc1ccc(-c2csc(-c3nc(-c4ccc(Br)s4)cs3)n2)cc1F", "survival": "inactive: 78%"},
      {"smiles": "Cn1c(-c2ccccc2)cnc1NC(=O)c1ccc(F)cc1", "survival": "inactive: 116%"},
      {"smiles": "CCCC1=Nc2cc(C(=O)NCCc3ccc(OCC)cc3)ccc2Sc2ccccc21", "survival": "inactive: 82%"},
      {"smiles": "CN1CCN(C(=O)C(C(=O)N2CCN(C)CC2)C23CC4CC(CC(C4)C2)C3)CC1", "survival": "inactive: 101%"},
      {"smiles": "CC(=O)N(CN1C(=O)CCC1=O)c1ccc(Cl)c(Cl)c1", "survival": "inactive: 98%"},
      {"smiles": "COc1cc2c(-c3ccccc3O)nc3c(c(C)nn3-c3ccccc3)c2cc1OC", "survival": "inactive: 63%"},
      {"smiles": "O=C(CN1CCCC1)N/N=C/c1c(O)ccc2ccccc12", "survival": "inactive: 104%"},
      {"smiles": "COc1cccc(CN2C(=O)c3ccccc3Sc3ccc(C(=O)NCCc4ccc(C)cc4)cc32)c1", "survival": "inactive: 75%"},
      {"smiles": "O=C(Nc1ccc(-c2nc3cc(NC(=O)c4ccccc4F)ccc3o2)cc1)c1ccccc1F", "survival": "inactive: 72%"},
      {"smiles": "Cc1cccc(NC(=O)Cn2cc(C(=O)C3CCCCC3)c3ccccc32)c1C", "survival": "inactive: 61%"},
      {"smiles": "COc1ccccc1C(=O)N1CCCCC1CCN1CCOCC1", "note": "(configuration not stated)", "survival": "inactive: 89%"},
      {"smiles": "N#Cc1ccccc1NC(=O)CSc1ncn[nH]1", "survival": "inactive: 152%"},
      {"smiles": "Cc1ccccc1CNC(=O)Cn1ccc2cc(S(=O)(=O)N3CCCCC3)ccc21", "survival": "inactive: 123%"},
      {"smiles": "COc1ccccc1NC(=O)c1sc2nc(C)c(C(=O)Nc3ccc(C)cc3C)c(-c3ccc(Br)cc3)c2c1N", "survival": "inactive: 89%"},
      {"smiles": "CCOc1ccc(C(=O)c2cn(CC(=O)Nc3ccc4c(c3)OCCO4)c3ccc(OC)cc3c2=O)cc1", "survival": "inactive: 94%"},
      {"smiles": "CCCc1nn2c(=O)cc(COC(=O)c3cccs3)nc2s1", "survival": "inactive: 133%"},
      {"smiles": "Cc1ccc(CNC(=O)C(=O)NCC(c2cccnc2)N2CCN(c3ccc(F)cc3)CC2)cc1", "note": "(configuration not stated)", "survival": "inactive: 84%"},
      {"smiles": "O=C(NCc1ccccc1)c1cc2sccc2n1Cc1ccc(F)cc1", "survival": "inactive: 99%"},
      {"smiles": "Cc1cccc(C(=O)Nc2ccc(C(=O)OCc3cc(=O)n4c5c(sc4n3)CCCC5)cc2)c1", "survival": "inactive: 95%"},
      {"smiles": "CCOc1ccc(C(=O)CSc2nc3cc(C(=O)NC4CCCC4)ccc3c(=O)n2CC2CCCO2)cc1", "note": "(configuration not stated)", "survival": "active: 0%"},
      {"smiles": "CC(=O)c1ccc(NC(=O)c2ccc3c(c2)nnn3C2CCCC2)cc1", "survival": "inactive: 72%"},
      {"smiles": "Cc1ccc(C)c(NC(=O)c2nc(S(C)(=O)=O)ncc2N(Cc2ccc(C(C)(C)C)cc2)Cc2ccco2)c1", "survival": "inactive: 87%"},
      {"smiles": "O=C(CCc1nc2ccccc2[nH]c1=O)OCc1ccc(Cl)cc1", "survival": "inactive: 99%"},
      {"smiles": "Cc1ccn2cc(C(=O)NC3CCCCC3)nc2c1", "survival": "inactive: 99%"},
      {"smiles": "CN1C(=O)Cc2cc(S(=O)(=O)N3CCN(c4cccc(C(F)(F)F)c4)CC3)ccc21", "survival": "inactive: 135%"},
      {"smiles": "CCOC(=O)N1CCC(NC(=O)c2ccc3c(c2)N(Cc2cc(C)ccc2C)C(=O)c2ccccc2S3(=O)=O)CC1", "survival": "inactive: 77%"},
      {"smiles": "CCOc1ccc(CCn2c3c(c(=O)[nH]c2=O)C(NC(=O)c2ccccc2)(C(F)(F)F)C(=O)N3)cc1OCC", "note": "(configuration not stated)", "survival": "inactive: 68%"},
      {"smiles": "CCCCCn1c(=O)[nH]c2cc(C(=O)N3CCN(c4cc(Cl)ccc4C)CC3)ccc2c1=O", "survival": "inactive: 83%"},
      {"smiles": "OC1CCN(C(c2cccc(C(F)(F)F)c2)c2nnnn2Cc2ccc(F)cc2)CC1", "note": "(configuration not stated)", "survival": "inactive: 114%"},
      {"smiles": "COc1ccc(NC(=O)CSc2nc3ccccc3nc2Cc2ccc(C)cc2)cc1Cl", "survival": "inactive: 54%"},
      {"smiles": "CCOC(=O)c1c(S(=O)(=O)NCC(=O)Nc2cc(C)ccc2OC)c(C)n(C)c1C", "survival": "inactive: 99%"},
      {"smiles": "CC(Sc1nnc(COc2ccccc2)n1-c1ccccc1)C(=O)O", "note": "(configuration not stated)", "survival": "inactive: 109%"},
      {"smiles": "Cc1ccc(C(=O)OCc2cc(=O)n3nc(-c4cccs4)sc3n2)cc1", "survival": "inactive: 78%"},
      {"smiles": "Cc1ccccc1C(=O)OCc1cc(=O)n2nc(C3CC3)sc2n1", "survival": "inactive: 80%"},
      {"smiles": "CCN(CC)c1ccc2cc(-c3nc(-c4ccc(Cl)cc4Cl)cs3)c(=O)oc2c1", "survival": "inactive: 32%"},
      {"smiles": "O=C(Cn1cc(SCc2ccccc2F)c2ccccc21)N1CCCCCC1", "survival": "inactive: 81%"},
      {"smiles": "COc1ccccc1NC(=O)Cn1c(=O)n(Cc2cccs2)c(=O)c2cccnc21", "survival": "inactive: 75%"},
      {"smiles": "CCOC(=O)c1ccc(Nc2nc3nonc3nc2Nc2cccc(C)c2C)cc1", "survival": "active: 0%"},
      {"smiles": "CC(OC(=O)CCc1nc2ccccc2[nH]c1=O)C(=O)c1ccccc1", "note": "(configuration not stated)", "survival": "inactive: 108%"},
      {"smiles": "Cc1nc(-c2ccccc2)sc1-c1ccc(SCC(=O)NCc2ccccc2)nn1", "survival": "inactive: 93%"},
      {"smiles": "Cc1coc2cc3oc(=O)c(CC(=O)NCc4ccccc4)c(C)c3cc12", "survival": "inactive: 86%"},
      {"smiles": "Cc1cc(NC(=O)c2ccccc2C)no1", "survival": "inactive: 107%"},
      {"smiles": "COc1cccc(-c2cnc(NCc3ccccc3Cl)n2C)c1", "survival": "inactive: 70%"},
      {"smiles": "Cc1ccc(C(=O)Nc2ccc3oc(-c4cccnc4)nc3c2)c(Cl)c1", "survival": "inactive: 92%"},
      {"smiles": "CCOc1ccccc1NC(=O)c1cc(S(=O)(=O)NC2CCCC2)ccc1F", "survival": "inactive: 71%"},
      {"smiles": "CC(C)(C)c1ccc(S(=O)(=O)Nc2ccc(O)c(Sc3nc4ccccc4s3)c2)cc1", "survival": "active: 3%"},
      {"smiles": "CC(=O)N1CCCc2cc(S(=O)(=O)N3CCCC(C(=O)Nc4ccc(C)c(C)c4)C3)ccc21", "note": "(configuration not stated)", "survival": "inactive: 91%"},
      {"smiles": "CCOc1ccc2nc(N3CCC(C(=O)Nc4c(C)cccc4C)CC3)sc2c1", "survival": "inactive: 86%"},
      {"smiles": "Cc1ccc(C)c(N2CCN(C(=O)c3cc4c(=O)n(Cc5cccs5)ccc4nc3C)CC2)c1", "survival": "inactive: 80%"},
      {"smiles": "Cc1ccc(S(=O)(=O)Nc2cc3c(cc2Cl)n(C)c(=O)c(=O)n3C)cc1", "survival": "inactive: 75%"},
      {"smiles": "O=C(Nc1cccc(F)c1)NC1(C(=O)NCc2ccco2)CCCCC1", "survival": "inactive: 102%"},
      {"smiles": "Cc1ccc(C)c(CN2C(=O)c3ccccc3S(=O)c3ccc(C(=O)N(C)Cc4ccccc4)cc32)c1", "note": "(configuration not stated)", "survival": "inactive: 96%"},
      {"smiles": "CCCCOc1ccc(CNC(=O)c2ccc(NC(=O)N3CCSc4ncccc43)cc2)cc1", "survival": "inactive: 57%"},
      {"smiles": "Cc1ccc(-n2ncc(C(=O)N3CCC(c4ccccc4)C3)c2C2CCN(C(=O)OC(C)(C)C)CC2)cc1", "note": "(configuration not stated)", "survival": "inactive: 73%"},
      {"smiles": "CCCc1nn2c(C)c(-c3ccccc3)nc2s1", "survival": "inactive: 95%"},
      {"smiles": "O=S(=O)(Nc1cccc(-c2ccc(N3CCOCC3)nn2)c1)c1ccc(F)cc1F", "survival": "inactive: 83%"},
      {"smiles": "CN(C)c1ccc(C(C(=O)NCc2ccccc2)N(Cc2ccco2)C(=O)c2snc(C(N)=O)c2N)cc1", "note": "(configuration not stated)", "survival": "inactive: 119%"},
      {"smiles": "O=C(Nc1nc(-c2ccc(Br)cc2)ns1)c1ccccc1F", "survival": "inactive: 92%"},
      {"smiles": "Cc1cc(C)c2oc(C(=O)Nc3ccc(S(=O)(=O)N(C)c4ccccc4)cc3)cc(=O)c2c1", "survival": "inactive: 84%"},
      {"smiles": "O=c1c2c3c(sc2n(Cc2cc(=O)n4ccccc4n2)c(=O)n1-c1ccc(Cl)cc1)CCC3", "survival": "inactive: 89%"},
      {"smiles": "COC(=O)CCN(C(=O)c1c(C)oc2ncnc(N3CCOCC3)c12)c1ccccc1", "survival": "active: 0%"},
      {"smiles": "Cc1cccc(N2CCN(C(=O)C3CCN(S(=O)(=O)c4ccc5c(c4)oc(=O)n5C)CC3)CC2)c1C", "survival": "inactive: 88%"},
      {"smiles": "O=C(/C=C/c1ccccc1)N1CCN(Cc2cc(=O)n3nc(-c4ccccc4)sc3n2)CC1", "survival": "inactive: 97%"},
      {"smiles": "CCC(=O)N1CCc2cc(S(=O)(=O)N(C)c3cccc(C)c3)ccc21", "survival": "inactive: 86%"},
      {"smiles": "CC(C)NC(=O)Cn1c(SCC(=O)N2CCc3ccccc32)nc2ccccc21", "survival": "inactive: 107%"},
      {"smiles": "COC(=O)CSc1nnc2n(-c3ccccc3)c(=O)c3c4c(sc3n12)COC(C(C)C)C4", "note": "(configuration not stated)", "survival": "inactive: 135%"},
      {"smiles": "CCCOc1ccc(C2C(=O)N(C3CCCCCC3)CC(=O)N2CCCOCC)cc1OC", "note": "(configuration not stated)", "survival": "inactive: 73%"},
      {"smiles": "Cc1ccccc1NC(=O)c1sc2nc(N3CCOCC3)c3c(c2c1N)CC(C)(C)OC3", "survival": "inactive: 67%"},
      {"smiles": "CCN(c1cc(C)cc(C)c1)S(=O)(=O)c1nnc(NC(=O)c2cccc(F)c2)s1", "survival": "inactive: 44%"},
      {"smiles": "Cc1ccc(OCc2n[nH]c(=S)n2C2CCCCC2)cc1", "survival": "inactive: 105%"},
      {"smiles": "CCOc1ccccc1N1CC(c2nc3ccccc3n2CCOc2ccc(C(C)(C)C)cc2)CC1=O", "note": "(configuration not stated)", "survival": "inactive: 41%"},
      {"smiles": "CCOc1ccccc1N(C)C(=O)Cn1nc(Cc2cccnc2)c2ccccc2c1=O", "survival": "inactive: 82%"},
      {"smiles": "COc1cc(NC(=O)N2CCN(c3cc(-c4noc(C)n4)ccc3C)CC2)cc(OC)c1OC", "survival": "active: 14%"},
      {"smiles": "COc1ccc2c(c1)c1c(c(=O)n(CCc3ccccc3)c(=O)n1Cc1ccc(Cl)cc1)n2C", "survival": "inactive: 63%"},
      {"smiles": "Cc1ccc(NC(=O)/C(C#N)=C\\c2ccc(Cl)cc2Cl)cc1C", "survival": "inactive: 46%"}
    ]}
  ]
}
